Assay results as given in PubChem BioAssay AID504706 (National Center for Advancing Translational Sciences (NCATS), 2011).
Hit rate of the full screen: of about 320,000 compounds, about 200 (0.062%) were called active. The inconclusive results got no clear call from the source; some entries with a clear call stand among them for comparison. Calls come from the whole dose curve; as a rule, active = well fitted activation curve with a large enough effect; inconclusive = small, poorly fitted or top-dose-only effect; inactive = no such curve, though single readings can be large or run the other way. No potency is given beside an inconclusive call; the fits are too rough.

Test: qHTS assay for re-activators of p53 using a Luc reporter; note: nearly all actives have a fitted effect of over 45% in size
Settings: H1299 p53-A138V BP100-luciferase reporter, luminescence, 24 h; series mostly up to 92.2 µM
Procedure, shortened: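 H1299 (p53-null), stable ts p53-A138V + BP100-Luc; 1000 cells/well, Opti-MEM/10% FBS; cpd 4 pt, 1:5; 24 h, 37 deg C, 5% CO2; detection reagent 10 min RT; luminescence.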
Potency is the fitted concentration of half-maximal effect; tags give direction and shape of the fitted curve.

SMILES	Potency
Cc1nnc(SCC(=O)N2CC(=O)Nc3ccccc32)s1	inconclusive [activator, single point]
CN(C)Cc1nnnn1-c1ccccc1	inactive
CCOc1ccc(N(CC(=O)NC2CCCC2)C(=O)CSc2nnc(COc3ccccc3)o2)cc1	inactive
O=C(/C=C/c1ccc(Cl)cc1Cl)NC(=S)Nc1ccccn1	inconclusive [activator, partial curve, poor fit]
Cc1ccsc1/C=N/NC(=O)c1ccc2nc[nH]c2c1	inconclusive [activator, partial curve, poor fit]
Cc1c(C(=O)N2CCCC(C(F)(F)F)C2)oc2ccccc12 (configuration not stated)	inconclusive [activator, full curve, poor fit]
COCC(=O)N(C)c1nnc(-c2ccccn2)s1	inconclusive [activator, single point]
COc1cc(C(=O)/C=C/c2cccnc2)ccc1O	inconclusive [activator, partial curve, poor fit]
Cc1ccccc1CSCC(=O)N1CCN(c2ccccc2)CC1	inconclusive [activator, partial curve, poor fit]
CC12CC3CC(C)(C1)CC(CN1CCOCC1)(C3)C2	inactive
COc1ccc(-c2cc(C(=O)N3CCOCC3)no2)cc1OC	inconclusive [activator, single point]
CN(C)c1ccc(NC(=O)c2ccc(COc3cccc(Cl)c3)o2)cc1	inconclusive [activator, full curve]
Cc1cccc(-c2noc(CNS(=O)(=O)c3ccccc3)n2)c1	inconclusive [activator, partial curve, poor fit]
Cc1cc(C)nc(SCC(=O)OCC(=O)Nc2nc3ccccc3s2)n1	inconclusive [activator, partial curve, poor fit]
CC(C)c1ccc(NC(=O)Nc2cnccn2)cc1	inconclusive [activator, full curve, poor fit]
COc1ccc(CCNc2ncccc2C#N)cc1OC	inconclusive [activator, partial curve, poor fit]
Cc1ccc2cc(CN(C(=O)c3ccco3)c3ccccc3)c(=O)[nH]c2c1	inconclusive [activator, full curve, poor fit]
O=C1C=C(Nc2ccc(O)cc2)C(=O)c2ccccc21	inconclusive [activator, full curve, poor fit]
CCCC[C@@]1(C2CCCC2)Cc2cc(OCC(=O)O)c(Cl)c(Cl)c2C1=O	inactive
O=C(CSc1nnc(-c2ccc(Cl)cc2)o1)N1CCOCC1	inconclusive [activator, partial curve, poor fit]
Cn1c(-c2ccc(C(F)(F)F)cc2)cc2onc(-c3ccccc3)c2c1=O	active: 22.4 µM
Cc1csc(NC(=O)c2nc3nc(C)cc(C)n3n2)n1	inconclusive [activator, partial curve, poor fit]
Nc1nc(COC(=O)CCC(=O)c2ccc(Cl)cc2)nc(Nc2ccccc2)n1	inconclusive [activator, full curve, poor fit]
CCCOc1ccccc1NC(=O)c1c(-c2ccccc2)noc1C	inactive

SMILES	Potency
CC(CN1CCOCC1)OC(=O)c1ccccc1 (configuration not stated)	inactive
Cc1ccsc1C(=O)NNC(=O)COc1ccc(Br)cc1	inactive
Cc1c(C(=O)NNC(=O)c2cccnc2)cccc1[N+](=O)[O-]	inactive
c1ccc(COc2ccc(OCCN3CCCC3)cc2)cc1	inconclusive [activator, partial curve, poor fit]
Cc1ccc(C)c(N2CCN(S(=O)(=O)c3c(C)noc3C)CC2)c1	inactive
COc1ccc(/C=N/NC(=O)c2nonc2C)cc1	inconclusive [activator, partial curve, poor fit]
O=[N+]([O-])c1ccc(C2=Nc3cc(Cl)ccc3OC2)cc1	inactive
CN1CCN(c2ccc(C(=O)c3ccc(Br)cc3)cc2[N+](=O)[O-])CC1	inactive
O=C(CSc1nc(=O)n(CCN2CCOCC2)c2c1CCCC2)Nc1ccc([N+](=O)[O-])cc1	inactive
CCCN(CCC)CC(O)CN(c1ccccc1)S(=O)(=O)c1ccc(C)cc1 (configuration not stated)	inactive
Nc1nn(-c2ccccc2)c(N)c1N=Nc1ccc2c(c1)OCO2	inconclusive [activator, partial curve, poor fit]
COc1cc(/C=C/C(=O)OCC(=O)NCc2ccco2)ccc1OC(F)F	inactive
Cc1ccnc(NC(=O)c2cc3cc(F)ccc3s2)c1	inconclusive [activator, full curve, poor fit]
O=C(Nc1cccc2ccccc12)c1cnccn1	inactive
CC(=O)N(C(C)=O)c1ncc2c([nH]c3ccccc32)c1C#N	inactive
CSc1ncccc1C(=O)Nc1nc2ccc(Oc3ccccc3)cc2s1	inconclusive [activator, partial curve, poor fit]
COc1ccc(C(=O)Nc2nnc(Cc3ccc(OC)c(OC)c3)s2)cc1	inconclusive [activator, single point]
Clc1ncnc2c1oc1ccccc12	inconclusive [activator, partial curve, poor fit]
S=C(NCc1ccco1)Nc1ccc(Cl)cc1	inconclusive [activator, single point]
O=C(NCCN1CCOCC1)NC1(C(F)(F)F)Oc2ccc(Cl)cc2O1 (configuration not stated)	inconclusive [activator, single point]
CCn1c(O)c(C=NC2CCCC(C)C2C)sc1=S (configuration not stated)	inconclusive [activator, partial curve, poor fit]
O=C(Cc1cccs1)Nc1nc(-c2ccccc2)cs1	inconclusive [activator, single point]
CCc1nnc(NC(=O)C=C(C)C)s1	inconclusive [activator, full curve, poor fit]
COC(=O)c1ccccc1S(=O)(=O)N(Cc1cc2ccc(OC)cc2[nH]c1=O)CC1CCCO1 (configuration not stated)	inactive

SMILES	Potency
CCSc1nc2ccc(N3C(=O)C4C5C=CC(C5)C4C3=O)cc2s1 (configuration not stated)	inconclusive [activator, full curve]
COc1ccc(C2NC(=S)NC(C)=C2C(=O)c2ccccc2)cc1OC (configuration not stated)	inactive
COc1ccccc1CNC(=O)c1c(N)n(CCCN2CCOCC2)c2nc3ccccc3nc12	inactive
O=C(OCc1nc2ccccc2s1)c1ccco1	inconclusive [activator, partial curve, poor fit]
CCCCOC(=O)CN1C(=O)c2ccc(C(=O)OCCCC)cc2C1=O	inconclusive [activator, partial curve, poor fit]
COc1cccc(C(=O)Nc2cccc(-c3ccc(N4CCOCC4)nn3)c2)c1	inactive
CCOC(=O)N1CCC(N2C(=O)c3ccc(C(=O)Nc4cccc(OC)c4)cc3C2=O)CC1	inactive
Cc1cccc(OC(C)C(=O)NC2CCS(=O)(=O)C2)c1C (configuration not stated)	inconclusive [activator, single point]
CCCCNC(=O)CCC(=O)Nc1ccc2nc(N3CCCCC3)cc(C)c2c1	inconclusive [activator, partial curve, poor fit]
CC1(C)CC(=O)/C(=N/Nc2ccc(Cl)cc2)CO1	inactive
Cc1cc(C(=O)COC(=O)Cn2c(C(F)(F)F)nc3ccccc32)c(C)n1Cc1ccco1	inactive
O=C(Nc1ccc(Oc2ccccc2)nc1)C1CCCCN1Cc1ccc(OCCO)cc1 (configuration not stated)	inactive
O=C(NCCc1c[nH]c2ccccc12)c1cnc2n(c1=O)CCS2	inconclusive [activator, full curve, poor fit]
CC(=O)Nc1sc2c(c1C(c1ccccn1)N1CCCC1)CCCC2 (configuration not stated)	inactive
O=C(Nc1cccnc1Cl)c1cc([N+](=O)[O-])ccc1Cl	inconclusive [activator, partial curve, poor fit]
CCOc1ccc(C(=S)NC2CCCCC2)cc1	inconclusive [activator, partial curve, poor fit]
Cc1nc([N+](=O)[O-])cn1Cc1cccc2ccccc12	inconclusive [activator, single point]
CC(C)Cc1nnc(NC(=O)C2=COCCO2)s1	inconclusive [activator, partial curve, poor fit]
O=C(c1cc2nc(-c3cccs3)cc(C(F)(F)F)n2n1)N1CCCc2ccccc21	inactive
C/C(=N\NC(=O)c1ccccc1)c1cc2cc([N+](=O)[O-])ccc2oc1=O	inconclusive [activator, single point]
N#Cc1c(-c2ccccc2)c(C#N)c2nc3ccccc3n2c1N	inactive
CCCN(CCC)CCNC(=O)C(NS(=O)(=O)c1ccc2c(c1)CCC(=O)N2)c1ccccc1 (configuration not stated)	inconclusive [activator, partial curve, poor fit]
C/C(=C\C(=O)c1cccnc1)Nc1ccc(C)c(C)c1	inconclusive [activator, partial curve, poor fit]
Cc1ccc(NC(=O)c2ccn(C)n2)c(Br)c1	inconclusive [activator, full curve, poor fit]
